The source of these data is article PMC10726135.

Some of the results follow. At the low end of the ranking the order means little. The protein was read in a cell extract, so binding may be indirect.

For this test, the target named is T1, HNF4alpha8 (COS-7 nuclear extract) (UniProt P41235-5).
T1 sequence: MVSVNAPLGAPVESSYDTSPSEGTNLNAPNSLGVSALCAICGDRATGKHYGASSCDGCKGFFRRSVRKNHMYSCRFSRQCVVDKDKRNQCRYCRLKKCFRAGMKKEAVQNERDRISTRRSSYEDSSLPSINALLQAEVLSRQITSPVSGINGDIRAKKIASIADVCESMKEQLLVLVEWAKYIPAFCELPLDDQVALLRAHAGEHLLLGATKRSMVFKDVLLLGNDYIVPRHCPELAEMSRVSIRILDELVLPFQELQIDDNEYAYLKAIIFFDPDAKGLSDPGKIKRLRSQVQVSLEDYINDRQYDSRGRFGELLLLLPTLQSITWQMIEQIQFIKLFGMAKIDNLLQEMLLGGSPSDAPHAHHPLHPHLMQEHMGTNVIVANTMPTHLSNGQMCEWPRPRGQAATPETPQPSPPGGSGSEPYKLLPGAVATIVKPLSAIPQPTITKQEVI
Description: protein-binding microarray. As to conditions: COS-7 nuclear extract on double-stranded Agilent 4x180k PBM; binding buffer, salt, pH and temperature not given; high values mean tight binding; double strand, one strand shown; sequences stand for … in …GCCTAGGGAGATTAGAGTATCGGTCGA
Turning to CCAACGGTCGGAAGGGAGGTGCCATGTCAC, the binding signal (log2 normalized intensity) was -1.29.
For AGGGTAGGAGCCTCTGATTTGCTGATCCTA the value was -1.33.
For TTTTCAACAATGTTATCTTTTCAAGGATGT the value was 1.42.
For CCTGCTGGCCTGGGAACTTAGCGATTTGGA the value was -1.08; for AACTCTGAAGATTCACAGGTGGGATGCAAA, -1.06; for GAAGATAAATCAGAAGAAAAAGGTAAGGAG, -1.37.
Turning to CTCCGCCCCGTTCCCGGCAGCCCGCGCGTG, the binding signal (log2 normalized intensity) was found to be 2.56.
For TCCACTCTCCTATCTTTCCCTCCACTTCCT the value was -0.225.
As to GGCGTGGACTTCGCTCCGCCGCTAGGTGGC, the binding signal (log2 normalized intensity) was 3.13.
As to TGGACAAACAGGCTGAACATGACTGGCATT, the binding signal (log2 normalized intensity) was -1.3.
For CGATAAGCTGACCCCAAAACCCCCAAAGGT the value was 5.01; for ACAAAGTTCCTGAGATAAAAAGAAGCTTGG, -1.25.
On to AGCTCCATCTGAACTCTTCATGGACTCCTC, for which the binding signal (log2 normalized intensity) came out at 2.68.
For AATTCTTGTCCCTTTCAAGGGCTTACAACT the value was -0.163; for TGAGCCCAGTGGAGTAGGCTTTAGATAAGG, -1.25; for AAAAGAGCATAAGGTTTCCATCAAGCCTTT, -1.26.
Turning to CTGGGTCTGTCCTTTGTGTTTATGGCAAAT, the binding signal (log2 normalized intensity) amounted to 2.08.
As for TTCATAATTACCATTCTTGAGGACAGGCCA, the binding signal (log2 normalized intensity) is 0.215.
For GACCTGCAAACAGCACTCTCTGATTACACA the value was -1.32; for CTTCAGATGCCATGTCTAAAGGCTGTGTCG, 1.09; for GTCCCTGCCCTTTGTCCAGGGTGAGAGGGA, 2.24.
As for AGGTTGTACTATGACCCAAACTTCACAAAA, the binding signal (log2 normalized intensity) came to 2.99.
For GGGGCAAAGTTTATGTGTGAGCCTATAATT the value was 1.65.
For the sequence TGTTCCACCCAGGGTGGCAGGCTCTGCAAA, the binding signal (log2 normalized intensity) is -1.29.
As to GAAGCAAGTGTTTAACTCTTTATCTTTCTC, the binding signal (log2 normalized intensity) was found to be 1.58.
ACCATAAGAGGCTCTAGATCTCAAAGTCCA: the binding signal (log2 normalized intensity) stood at 4.86.
For TCTGTCCCTGCACCCTACCCCCATACTTTA the value was 3.87; for GAGACACCCCTGCAGAAGCGGGAGAGGCCC, -1.35.
For GCCACATTCCCCGACTCCTGGGTGTGAGAT the value was 0.782; for CTGTGCTTTCTAAAGTATGTGGTGGGTGTG, 2.04; for AGAGCTCCAGAAGAAAGGGGAGATAATGCC, -1.29.
Regarding ATCTGACCAAGTGAACTGTGACCTGATGAC, the binding signal (log2 normalized intensity) was 3.91.
For TACAGGCAAGAGAATCAGAGAGATACTGAA the value was -1.18; for GGGGGCTGTTTATGGGTTAACAGAATGAAC, 1.49; for GAAACATTTTACAACCTACTCTTTCTCTGA, -1.42.
Take TCAGATTGCCTAAAGGGGATTTTCTCAGCT: the binding signal (log2 normalized intensity) is -1.31.
Turning to AAAGCAGTGAGTGAAACATCCCACTCAAAG, the binding signal (log2 normalized intensity) was -1.22.
For ACACAAACTATGACCTTTGAAACTTACATT the value was 6.68; for GGGTTATGGAGAGTGGAAGACTGCACCAAA, -1.39.
For GTCCAGAGTTTAAATGACCTCTGCCCTTCC the value was 7.43; for TAAGAAATGAATGTCACTTTCTGACTGGCC, 0.556; for ATCTACCATTAGTCTCCAATATATTTGCCT, 0.00427.
For TAATCTGATCGCCCTCCCCCAGAGAGAACA the value was 5.05; for GTGCAGCTGCTGAAACATTCAACTGACACT, -1.42; for AGTCCACAGTCCAGTGACTATCTGCTACTT, -0.899.
For GGCTGGAGCAGGCCATGTGCAGAGGAGGGG, the binding signal (log2 normalized intensity) was -1.21.
For GAGTCCAGTGGGGGAGAGGGAGAATAAGGG the value was -1.38; for CTTGTTTGTGTAACTGTGGGTTCTAGGTAA, 1.62; for TCTGCTTTCAAAGCTCCAGTTCCAGGGATG, -1.35.
Turning to GCGGTAAAGAAGCCAGCCAAATCCCACCAA, the binding signal (log2 normalized intensity) came out at 2.27.
For GCCAAGGACCGCCAAGGAAGCGATGGGCTG, the binding signal (log2 normalized intensity) was -1.31.
For GGCCTTATAGGGCATACCCTTCCTGCTGAC the value was -1.26.
CCGCAGTGGGAGAGCAAGGGTCAAGGGTCA: the binding signal (log2 normalized intensity) is 7.52.
For ACTAATGCATTCCCAGCAAGTGAAGAGGAA the value was -1.41.
TATCTAAAAGCTTATCTGCACAATGAAACT: the binding signal (log2 normalized intensity) is -1.43.
For TGTGTTGGCACTTTGGACTTGAGAAGACAT the value was 4.01.
For GAACCTGTGTTTCCTGGATTGTGAAACACA the value was 0.783; for CAATCAGCAGCAAAGTCCTGGAAGAAACCC, -1.25.
For GAATGGACTCTGAGACCTGTGATGGTCACT the value was 1.83; for CACACCTCCAGCCACCCTGAAGGCTGAGCC, -1.31; for AGTAGCAGTTCAAAAGTTCAAAGATATGAT, 1.64.
For the sequence TCAGGCCATTTCACCTTTGCCCTGTCAGTC, the binding signal (log2 normalized intensity) came out at 6.79.
For AACAAATAAAGTGGATGGAGCAATTCAACA the value was -0.882.
For TTCTGATCTTTGACCTCTCCAGGGTCCTTG the value was 5.35; for GACCTGGCATATCTCTGTCCCTGATACCAT, 0.0233; for CTTCCCCCATCCCCAACAAAGCTCTGCATC, 4.72.
As for CATGGGTCTCTTCCTCAGTTTGTTCTTGGG, the binding signal (log2 normalized intensity) amounted to 1.61.
Regarding AATGCTATGCTTTTATTTAACTTCTGGGGG, the binding signal (log2 normalized intensity) was -0.243.
For CAAGTAAATTCCGGGGCTGGAATTTGAACC the value was 5.93; for CTCCCCTCCTCCAGATGGGCTCATGTAACA, 2.65.
TTGCCACTAGGGGTCACTGTCACATGTCCA: the binding signal (log2 normalized intensity) was determined as 3.07.
For CAAACGAGACTTTGGACTTTGGACTTGGGA the value was 10.9; for ATTCCAAGAAGAGCCAATAGTACACATCAA, -1.32.
As to AGTTTGTCTGATCTTCCTGAGGAGAGCAAA, the binding signal (log2 normalized intensity) is -1.18.
As to TTGTGTAACATCTAAGATTGGCCCTGATAA, the binding signal (log2 normalized intensity) turned out to be 1.08.
For CCTCCCCATTGTAGATTCAATAATACAAGA the value was 1.11; for CCAGAGAAATAGTGAGACAGACATGCGACA, -1.37.
For TTGTTTGTGTTTCCCTCCCTGGTATGTACT the value was 2.75.
For GAACAAGTATCCTGGTAGTGCGACAAGAAT the value was 0.149; for ATTCTACTGCCATTGATAATTCAGTTTCAT, -0.495; for TGTTGCGTAATACAAAGGCAGCCATTGACG, -1.29.
Turning to TCGCTCCGCCGCTAGGTGGCGGGCTGGCTC, the binding signal (log2 normalized intensity) is -1.42.
Take TAAACAGCTGACAATAAATTCCAGGCTGCC: the binding signal (log2 normalized intensity) was -1.26.
For ACACATAAACCCTGACCCTCAAGGGTCTCC the value was 1.78.
For AAGTACAGAGATGGCACAGAGGAGGGACGA the value was -1.35.
In the case of CCTTTTGAAGAAACCAACCCTGCCAAAGGT, the binding signal (log2 normalized intensity) was determined as 1.45.
For CTGGGTATTTCAAGAATGCAAAGCCCTGGC the value was -1.01; for TTTCATTGGAAAGGCAGAGGAAAGCCCTAG, -1.27; for TGGGTGTCAGGGTTCTCAGACCACCAGCTG, -1.4.
For ACAAGAGGCAAAGGCCACAGCTCAGATCAC the value was -1.28.
For AGGGGTAGAAGCTGAGCAGCAATCAGCTCC the value was -1.24.
Take CCCAGGCAATCTTCCAGTCCACAGTCCAGT: the binding signal (log2 normalized intensity) is 2.1.
For AGGCAGGGACTGAGGAATCTGGCTGTGCTG the value was -1.3.
